T1: His-tagged recombinant CD25 (UniProt P01589 22-213, limits assumed)
T1 construct: also called IL-2R alpha chain
T1 sequence (looked up): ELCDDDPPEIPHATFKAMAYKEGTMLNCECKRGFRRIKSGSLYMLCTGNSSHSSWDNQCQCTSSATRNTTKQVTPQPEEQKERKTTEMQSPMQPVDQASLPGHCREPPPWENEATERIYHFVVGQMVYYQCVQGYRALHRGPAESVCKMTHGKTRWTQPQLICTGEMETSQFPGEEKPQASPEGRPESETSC

T2: trimeric IL-2 receptor (CD25/CD122/CD132) on HEK-Blue IL-2 reporter cells (UniProt P01589 22-272; P14784 27-551; P31785 23-369, limits assumed)
T2 sequence (looked up) 1: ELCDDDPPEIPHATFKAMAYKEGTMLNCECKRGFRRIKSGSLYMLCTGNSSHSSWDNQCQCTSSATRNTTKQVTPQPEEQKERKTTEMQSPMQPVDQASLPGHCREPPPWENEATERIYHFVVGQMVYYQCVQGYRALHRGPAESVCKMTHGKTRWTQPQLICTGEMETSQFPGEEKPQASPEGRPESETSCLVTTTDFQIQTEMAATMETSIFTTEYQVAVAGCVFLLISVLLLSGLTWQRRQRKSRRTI
T2 sequence (looked up) 2: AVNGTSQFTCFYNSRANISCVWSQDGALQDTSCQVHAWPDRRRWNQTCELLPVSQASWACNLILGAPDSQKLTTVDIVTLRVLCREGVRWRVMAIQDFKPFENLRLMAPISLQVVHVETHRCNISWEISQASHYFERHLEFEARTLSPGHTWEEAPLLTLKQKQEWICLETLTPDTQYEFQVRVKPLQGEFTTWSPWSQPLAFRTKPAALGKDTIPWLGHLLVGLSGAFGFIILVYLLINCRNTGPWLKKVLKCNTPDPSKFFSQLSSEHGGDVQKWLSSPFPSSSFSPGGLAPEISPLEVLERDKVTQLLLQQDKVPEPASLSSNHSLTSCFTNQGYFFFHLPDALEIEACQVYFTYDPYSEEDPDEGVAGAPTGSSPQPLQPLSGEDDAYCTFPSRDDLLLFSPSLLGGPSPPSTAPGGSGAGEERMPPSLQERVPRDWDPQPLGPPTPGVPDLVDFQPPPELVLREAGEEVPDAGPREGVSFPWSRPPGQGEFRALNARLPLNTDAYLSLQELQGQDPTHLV
T2 sequence (looked up) 3: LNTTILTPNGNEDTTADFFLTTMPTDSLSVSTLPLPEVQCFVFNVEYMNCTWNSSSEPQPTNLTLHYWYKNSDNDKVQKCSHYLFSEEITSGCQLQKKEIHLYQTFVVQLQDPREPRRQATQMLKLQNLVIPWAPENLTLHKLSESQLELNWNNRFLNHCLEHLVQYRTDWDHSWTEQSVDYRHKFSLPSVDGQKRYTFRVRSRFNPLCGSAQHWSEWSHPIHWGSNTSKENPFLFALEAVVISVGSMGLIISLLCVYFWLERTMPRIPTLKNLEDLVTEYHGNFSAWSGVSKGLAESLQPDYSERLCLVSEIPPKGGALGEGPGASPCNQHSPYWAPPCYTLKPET

T3: high affinity trimeric IL-2R on CD4+CD25+FoxP3+ Treg cells of murine splenocytes (mouse, UniProt P01590 22-268; P16297 27-539; P34902 23-369)
T3 sequence (looked up) 1: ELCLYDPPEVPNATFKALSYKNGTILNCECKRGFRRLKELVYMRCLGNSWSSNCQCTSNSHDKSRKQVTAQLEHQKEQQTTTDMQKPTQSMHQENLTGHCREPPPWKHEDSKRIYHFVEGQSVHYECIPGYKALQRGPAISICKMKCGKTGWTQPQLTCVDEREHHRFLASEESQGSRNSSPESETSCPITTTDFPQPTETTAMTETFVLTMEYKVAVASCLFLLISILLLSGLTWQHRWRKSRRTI
T3 sequence (looked up) 2: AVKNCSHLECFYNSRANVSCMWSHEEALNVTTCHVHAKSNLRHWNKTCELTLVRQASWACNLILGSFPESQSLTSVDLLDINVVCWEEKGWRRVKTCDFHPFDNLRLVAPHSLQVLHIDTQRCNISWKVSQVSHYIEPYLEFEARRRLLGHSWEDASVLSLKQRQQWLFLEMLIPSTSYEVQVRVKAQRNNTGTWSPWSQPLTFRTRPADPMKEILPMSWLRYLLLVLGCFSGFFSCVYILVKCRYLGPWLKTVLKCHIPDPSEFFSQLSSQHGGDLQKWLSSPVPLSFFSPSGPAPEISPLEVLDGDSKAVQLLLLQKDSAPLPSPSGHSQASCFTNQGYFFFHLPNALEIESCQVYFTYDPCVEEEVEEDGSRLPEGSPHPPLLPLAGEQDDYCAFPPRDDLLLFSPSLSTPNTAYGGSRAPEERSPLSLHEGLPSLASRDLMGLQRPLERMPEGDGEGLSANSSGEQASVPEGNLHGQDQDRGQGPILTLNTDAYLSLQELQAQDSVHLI
T3 sequence (looked up) 3: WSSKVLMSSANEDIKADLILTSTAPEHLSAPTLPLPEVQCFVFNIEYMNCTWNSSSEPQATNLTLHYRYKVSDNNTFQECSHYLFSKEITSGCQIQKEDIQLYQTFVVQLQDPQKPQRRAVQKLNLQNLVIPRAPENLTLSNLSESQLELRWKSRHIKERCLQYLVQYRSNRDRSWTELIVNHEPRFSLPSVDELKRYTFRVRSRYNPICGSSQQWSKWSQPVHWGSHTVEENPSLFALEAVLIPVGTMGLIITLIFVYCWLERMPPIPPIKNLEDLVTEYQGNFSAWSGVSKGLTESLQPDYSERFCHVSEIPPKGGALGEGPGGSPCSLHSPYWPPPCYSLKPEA

B1: GYG794 (other)
heavy: QVQLVESGGGVVQPGRSLRLSCAASGYTFSSYLIEWVRQAPGKGLEWVAVINPGSGGTNYADSVKGRFTISADKSKNTAYLQMNSLRAEDTAVYYCARWRGDGYYAYFDVWGQGTTVTVSSASTKGPSVFPLAPSSKSTSGGTAALGCLVKDYFPEPVTVSWNSGALTSGVHTFPAVLQSSGLYSLSSVVTVPSSSLGTQTYICNVNHKPSNTKVDKRV[not shown - human IgG1 Fc with changes]
light: EIVLTQSPATLSVSPGERATLSCRASQSVSYGGNFHLRPRDLISNINVIVLELKGSETTFMCEYADETATIVEFLNRWITFSQSIISTLTPTSSSTKKTQLQLEHLLLDLQMILNGINNYKNPKLTRMLTFKFYMPKKATELKHLQCLEEELKPLEEVLNLAQSKGGGDSYMNWYQQKPGQAPRLLIYAASNLASGIPARFSGSGSGTEFTLTISSLQSEDAAVYYCQQSNEDPYTFGGGTKVEIKRTVAAPSVFIFPPSDEQLKSGTASVVCLLNNFYPREAKVQWKVDNALQSGNSQESVTEQDSKDSTYSLSSTLTLSKADYEKHKVYACEVTHQGLSSPVTKSFNRGEC
notes: Antibody B IgG with IL-2CP in CDR-L1
B2: DRO069 (other)
heavy: QVQLVESGGGVVQPGRSLRLSCAASGYTFSSYLIEWVRQAPGKGLEWVAVINPGSGGTNYADSVKGRFTISADKSKNTAYLQMNSLRAEDTAVYYCARWRGDGYYAYFDVWGQGTTVTVSSASTKGPSVFPLAPSSKSTSGGTAALGCLVKDYFPEPVTVSWNSGALTSGVHTFPAVLQSSGLYSLSSVVTVPSSSLGTQTYICNVNHKPSNTKVDKRV[not shown - human IgG1 Fc with changes]
light: EIVLTQSPATLSVSPGERATLSCRASQSVSYGGGNFHLRPRDLISNINVIVLELKGSETTFMCEYADETATIVEFLNRWITFSQSIISTLTPTSSSTKKTQLQLEHLLLDLQMILNGINNYKNPKLTRMLTFKFYMPKKATELKHLQCLEEELKPLEEVLNLAQSKGGGGDSYMNWYQQKPGQAPRLLIYAASNLASGIPARFSGSGSGTEFTLTISSLQSEDAAVYYCQQSNEDPYTFGGGTKVEIKRTVAAPSVFIFPPSDEQLKSGTASVVCLLNNFYPREAKVQWKVDNALQSGNSQESVTEQDSKDSTYSLSSTLTLSKADYEKHKVYACEVTHQGLSSPVTKSFNRGEC
notes: Antibody B IgG with IL-2CP in CDR-L1; also called DRQ069
B3: ECV200 (other)
heavy: QVQLVESGGGVVQPGRSLRLSCAASGYTFSSYLIEWVRQAPGKGLEWVAVINPGSGGTNYADSVKGRFTISADKSKNTAYLQMNSLRAEDTAVYYCARWRGDGYYAYFDVWGQGTTVTVSSASTKGPSVFPLAPSSKSTSGGTAALGCLVKDYFPEPVTVSWNSGALTSGVHTFPAVLQSSGLYSLSSVVTVPSSSLGTQTYICNVNHKPSNTKVDKRV[not shown - human IgG1 Fc with changes]
light: EIVLTQSPATLSVSPGERATLSCRASQSVSYGGGGSGNFHLRPRDLISNINVIVLELKGSETTFMCEYADETATIVEFLNRWITFSQSIISTLTPTSSSTKKTQLQLEHLLLDLQMILNGINNYKNPKLTRMLTFKFYMPKKATELKHLQCLEEELKPLEEVLNLAQSKGGGGSGGDSYMNWYQQKPGQAPRLLIYAASNLASGIPARFSGSGSGTEFTLTISSLQSEDAAVYYCQQSNEDPYTFGGGTKVEIKRTVAAPSVFIFPPSDEQLKSGTASVVCLLNNFYPREAKVQWKVDNALQSGNSQESVTEQDSKDSTYSLSSTLTLSKADYEKHKVYACEVTHQGLSSPVTKSFNRGEC
notes: as for B1
B4: BFC885 (other)
heavy: QVQLVESGGGVVQPGRSLRLSCAASGYTFSSYLIEWVRQAPGKGLEWVAVINPGSGGTNYADSVKGRFTISADKSKNTAYLQMNSLRAEDTAVYYCARWRGDGYYAYFDVWGQGTTVTVSSASTKGPSVFPLAPSSKSTSGGTAALGCLVKDYFPEPVTVSWNSGALTSGVHTFPAVLQSSGLYSLSSVVTVPSSSLGTQTYICNVNHKPSNTKVDKRV[not shown - human IgG1 Fc with changes]
light: EIVLTQSPATLSVSPGERATLSCRASQSVSYGGGGSGGGGSGGGNFHLRPRDLISNINVIVLELKGSETTFMCEYADETATIVEFLNRWITFSQSIISTLTPTSSSTKKTQLQLEHLLLDLQMILNGINNYKNPKLTRMLTFKFYMPKKATELKHLQCLEEELKPLEEVLNLAQSKGGGGSGGGGSGGGGDSYMNWYQQKPGQAPRLLIYAASNLASGIPARFSGSGSGTEFTLTISSLQSEDAAVYYCQQSNEDPYTFGGGTKVEIKRTVAAPSVFIFPPSDEQLKSGTASVVCLLNNFYPREAKVQWKVDNALQSGNSQESVTEQDSKDSTYSLSSTLTLSKADYEKHKVYACEVTHQGLSSPVTKSFNRGEC
notes: Antibody B IgG with IL-2CP in CDR-L1, 13/14 AA linkers

Columns and labels:
[1] = target: T1, His-tagged recombinant CD25; test: SPR, CD25 captured
[2] = target: anti-IL-2 antibody clone 5344; test: ELISA on clone 5344
[3] = target: T2, trimeric IL-2 receptor …; test: cell-based or functional assay
[4] = target: IL-2R on NK cells and CD8+ T cells of murine splenocytes (C57BL/6) (mouse); test: cell-based or functional assay
[5] = target: T3, high affinity trimeric IL-2R on …; test: cell-based or functional assay

Row | Binder | binding result [1] | EC50 [2] | EC50, HEK Blue IL-2 reporter assay (SEAP) [3] | EC50 CD8 cells (nM), pSTAT5 [4] | EC50 NK cells (nM), pSTAT5 [4] | EC50 Treg cells (nM), pSTAT5 [5] | Kd [1]
1 | B1 | no binding (tested: 500 nM) | 0.2 nM | 0.0039 nM | 18.6 nM | 1.5 nM | 4.8 nM | 
2 | B2 | no binding (tested: 500 nM) | 0.11 nM | 0.00345 nM | 6.8 nM | 0.9 nM | 6.6 nM | 
3 | B3 | no binding (tested: 500 nM) | 0.13 nM | 0.00342 nM | 6.9 nM | 0.9 nM | 3.7 nM | 
4 | B4 |  | 0.25 nM | 0.00509 nM | 26.4 nM | 2 nM | 0.9 nM | 54.1 nM
